# Source: the antibiotic and cytotoxicity screens of Wong et al. (2023)
# The other results are listed elsewhere or left out.
# Test system: HSkMC (human skeletal muscle cells)
# Assay: cytotoxicity call (relative viability < 0.9)
# Conditions: 10 µM
row,SMILES,cytotoxicity call
1,O=C1NC(=O)[C@@]2(CCOc3ccc(F)cc32)N1,inactive
2,C[C@@H]1CN([C@H](C)CO)C(=O)c2cc(NS(=O)(=O)c3cn(C)cn3)ccc2O[C@H]1CN(C)C(=O)Nc1ccc(F)cc1,inactive
3,C[C@@H]1CCCCO[C@@H](CN(C)Cc2ccc3c(c2)OCO3)[C@@H](C)CN([C@H](C)CO)C(=O)c2cc(NC(=O)C3CCCCC3)ccc2O1,inactive
4,C[C@@H]1CN([C@@H](C)CO)C(=O)c2cc(NS(C)(=O)=O)ccc2O[C@@H]1CN(C)Cc1ccc(C(F)(F)F)cc1,inactive
5,COc1ccc(S(=O)(=O)N(C)C[C@H]2Oc3ccc(NS(C)(=O)=O)cc3CC(=O)N([C@@H](C)CO)C[C@@H]2C)cc1,inactive
6,C[C@H]1CCCCO[C@H](CN(C)S(=O)(=O)c2ccc(F)cc2)[C@@H](C)CN([C@@H](C)CO)C(=O)c2cc(NC(=O)NC3CCCCC3)ccc2O1,inactive
7,Cc1ccc(S(=O)(=O)N(C)C[C@@H]2Oc3ccc(NS(=O)(=O)c4ccc(F)cc4)cc3CC(=O)N([C@@H](C)CO)C[C@@H]2C)cc1,inactive
8,C[C@@H]1CN([C@H](C)CO)C(=O)c2cccc(NC(=O)Nc3ccc(C(F)(F)F)cc3)c2O[C@H]1CN(C)C(=O)Nc1ccc(C(F)(F)F)cc1,inactive
9,CCS(=O)(=O)NCC[C@@H]1CC[C@@H](NC(=O)Cc2ccccn2)[C@H](CO)O1,inactive
10,O=C(O)CN1Cc2ccccc2C1=O,inactive
11,C[C@@H]1C(=O)O[C@H]2[C@H](O)[C@@]34[C@H]5C[C@@H](C(C)(C)C)[C@]36[C@@H](OC(=O)[C@@H]6O)O[C@@]4(C(=O)O5)[C@@]12O,inactive
